The values that follow come from article PMC12350791.

The source holds more than one record for some entries. This is not the full list of results. There may be further records. Some protein pairs were linked at several places, one record each.

Sequence of SNW1 (Q13573 whole entry): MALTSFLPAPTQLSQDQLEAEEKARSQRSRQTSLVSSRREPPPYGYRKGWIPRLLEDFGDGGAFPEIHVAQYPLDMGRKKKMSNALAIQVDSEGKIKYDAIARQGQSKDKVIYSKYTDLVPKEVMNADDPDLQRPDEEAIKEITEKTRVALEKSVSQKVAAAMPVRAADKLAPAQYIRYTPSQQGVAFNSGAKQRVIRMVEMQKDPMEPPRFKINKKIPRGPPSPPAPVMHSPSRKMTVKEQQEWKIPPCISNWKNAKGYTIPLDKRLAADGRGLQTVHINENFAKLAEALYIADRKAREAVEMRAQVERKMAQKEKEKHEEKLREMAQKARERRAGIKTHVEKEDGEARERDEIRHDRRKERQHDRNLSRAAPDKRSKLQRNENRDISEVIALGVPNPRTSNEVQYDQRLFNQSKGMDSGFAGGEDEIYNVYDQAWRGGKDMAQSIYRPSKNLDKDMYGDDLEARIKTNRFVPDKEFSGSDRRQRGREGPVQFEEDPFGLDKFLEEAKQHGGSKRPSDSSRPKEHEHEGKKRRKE
Sequence of SART1 (O43290 whole entry): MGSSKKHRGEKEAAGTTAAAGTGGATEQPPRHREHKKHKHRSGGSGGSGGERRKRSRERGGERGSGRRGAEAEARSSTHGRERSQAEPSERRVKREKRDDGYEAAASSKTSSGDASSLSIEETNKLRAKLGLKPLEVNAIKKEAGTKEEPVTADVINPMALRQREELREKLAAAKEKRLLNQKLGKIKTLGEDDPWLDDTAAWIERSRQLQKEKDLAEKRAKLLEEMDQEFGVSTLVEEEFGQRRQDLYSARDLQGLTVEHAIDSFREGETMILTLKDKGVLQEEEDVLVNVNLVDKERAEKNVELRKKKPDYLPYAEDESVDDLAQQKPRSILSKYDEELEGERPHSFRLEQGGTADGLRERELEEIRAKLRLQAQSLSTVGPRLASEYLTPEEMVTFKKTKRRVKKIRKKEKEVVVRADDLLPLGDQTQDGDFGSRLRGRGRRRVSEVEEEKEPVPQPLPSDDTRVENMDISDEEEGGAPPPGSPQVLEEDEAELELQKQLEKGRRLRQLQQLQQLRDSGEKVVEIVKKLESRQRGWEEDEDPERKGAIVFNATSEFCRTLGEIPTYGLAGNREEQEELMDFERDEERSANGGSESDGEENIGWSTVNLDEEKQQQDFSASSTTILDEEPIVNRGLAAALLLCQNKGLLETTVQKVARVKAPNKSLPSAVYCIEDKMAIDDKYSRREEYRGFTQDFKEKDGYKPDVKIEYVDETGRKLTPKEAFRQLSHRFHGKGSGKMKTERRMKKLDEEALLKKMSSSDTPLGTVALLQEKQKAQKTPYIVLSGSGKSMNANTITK
Sequence of PRPF6 (O94906 whole entry): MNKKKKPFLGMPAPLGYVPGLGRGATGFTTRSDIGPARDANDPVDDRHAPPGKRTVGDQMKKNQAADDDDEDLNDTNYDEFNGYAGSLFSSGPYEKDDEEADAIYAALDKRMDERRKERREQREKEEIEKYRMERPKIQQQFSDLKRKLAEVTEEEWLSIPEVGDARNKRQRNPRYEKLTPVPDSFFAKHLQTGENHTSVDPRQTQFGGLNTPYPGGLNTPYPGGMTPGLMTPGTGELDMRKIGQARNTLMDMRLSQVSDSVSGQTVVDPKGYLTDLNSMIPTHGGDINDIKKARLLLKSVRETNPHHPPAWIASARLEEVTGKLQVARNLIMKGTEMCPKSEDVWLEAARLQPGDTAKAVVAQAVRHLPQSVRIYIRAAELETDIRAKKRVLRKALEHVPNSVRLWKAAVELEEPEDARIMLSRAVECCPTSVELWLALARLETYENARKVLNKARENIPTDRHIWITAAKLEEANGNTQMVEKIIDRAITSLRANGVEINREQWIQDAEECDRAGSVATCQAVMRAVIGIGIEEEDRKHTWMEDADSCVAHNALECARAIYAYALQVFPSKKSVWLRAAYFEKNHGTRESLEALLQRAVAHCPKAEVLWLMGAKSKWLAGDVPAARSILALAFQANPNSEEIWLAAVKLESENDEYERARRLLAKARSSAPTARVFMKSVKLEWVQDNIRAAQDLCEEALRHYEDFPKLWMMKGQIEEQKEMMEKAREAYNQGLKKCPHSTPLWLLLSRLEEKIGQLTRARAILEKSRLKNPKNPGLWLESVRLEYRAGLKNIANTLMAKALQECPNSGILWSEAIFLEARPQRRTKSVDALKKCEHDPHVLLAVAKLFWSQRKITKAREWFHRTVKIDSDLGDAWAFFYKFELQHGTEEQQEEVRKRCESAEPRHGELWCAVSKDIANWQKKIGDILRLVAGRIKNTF

The target of this assay is PRPF8 (UniProt Q6P2Q9). The experiment in a line: cross-linking mass spectrometry. As to conditions: DSBSO, in cells or nuclear extract, not told apart.
For PRPF6, O94906, the cross-linked residues result is “K137 - K670 and K178 - K727”.

On to SART1, O43290, for which the cross-linked residues result was “K657 - K1735 and K666 - K1344”.

SNW1, Q13573: the cross-linked residues entry was “K258 - K727 and K266 - K727”.
